Data from the supplement of paper PMC6531468.
The other results are listed elsewhere or left out. Values come from read counts of a selection and are noisy. Scores sum up all selected molecules that hold the word; the word was not tested alone.

Tested on: IMP3 KH1-2
Assay: 6-mer SELEX enrichment z-score vs GST control; IMP3 is the RNA-binding protein IGF2BP3; higher = more enriched by binding
Conditions: construct: KH1-2 (164-376); SELEX round: R4
Protocol: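 SELEX-seq with GST-tagged IMP3 KH1-2 (Pro164-Phe376) and an N40 RNA pool, round 4 (stringent 300/600 mM KCl washes). 6-mer z-score of sequence-tag enrichment normalised to the corresponding GST SELEX round; RNA k-mers written as DNA (T for U).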

IMP3 KH1-2, sequence (chain, as listed by the source): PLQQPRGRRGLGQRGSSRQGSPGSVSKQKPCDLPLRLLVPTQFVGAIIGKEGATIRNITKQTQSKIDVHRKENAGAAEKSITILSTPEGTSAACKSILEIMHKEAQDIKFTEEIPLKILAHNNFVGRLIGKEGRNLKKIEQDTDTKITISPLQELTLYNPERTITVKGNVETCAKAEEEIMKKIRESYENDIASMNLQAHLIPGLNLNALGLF

| Sequence | 6-mer SELEX enrichment z-score |
| --- | --- |
| CGTTTC | -0.453 |
| CAGTAT | 0.413 |
| AAGAAC | -0.136 |
| GTCAGT | 0.131 |
| ATGCGA | -0.7 |
| AAAGTT | -0.437 |
| TCCATA | 1.06 |
| AGGCAA | 0.528 |
| GGGTGA | 0.285 |
| GTTAAG | -0.241 |
| AAGTGC | -0.354 |
| TATGTC | 0.31 |
| ACACGG | 0.68 |
| GGCGGC | 0.981 |
| GCAGGG | 1.02 |
| CACCGT | -0.24 |
| AGGTCC | -0.125 |
| AAGCTG | -0.463 |
| GATACA | 1.18 |
| ATGACA | 1.56 |

| Sequence | 6-mer SELEX enrichment z-score |
| --- | --- |
| TGGGTA | 0.021 |
| AAACCA | -0.565 |
| AACTCA | -0.456 |
| TATTCC | 0.671 |
| CGTGCT | -0.261 |
| GTTGGC | 0.356 |
| AACGCG | -1.53 |
| CACCAC | 0.663 |
| GATGCA | 0.357 |
| ACCGTC | -0.536 |
| AGTATC | -0.512 |
| AATGTA | 0.092 |
| GGTGGA | 0.499 |
| GGGGTT | 0.601 |
| TGGAGC | -0.808 |
| TTCTTC | 0.777 |
| CTCCAG | -0.545 |
| GGAACA | 0.501 |
| AACGAA | -0.971 |
| TGCCAT | 0.333 |
